# Measurements reported in PubChem BioAssay AID624296 (National Center for Advancing Translational Sciences (NCATS), 2012).
# Hit rate of the full screen: of about 350,000 compounds, about 9,900 (2.8%) were called active. Inconclusive means that the source gave no clear call. Such entries were picked first, then a sample of the others. The call rests on the fitted dose curve; in most records, active means well fitted activation curve with a large enough effect; inconclusive means small, poorly fitted or top-dose-only effect; inactive means no such curve, though single readings can be large or run the other way. No potency is given beside an inconclusive call; the fits are too rough.
# Test: A quantitative high throughput screen for small molecules that induce DNA re-replication in MCF 10a normal breast cells. Further: nearly all actives have a fitted effect of over 50% in size.
# Settings: MCF 10A DNA re-replication, Hoechst nuclear intensity, 48 h; series mostly up to 46.1 µM
# Potency means the concentration at half of the fitted maximal effect; tags describe the fitted curve by direction and shape.
row,SMILES,Potency
1,Cc1cccc(N2CCN(C(=O)C3CCC(CNS(=O)(=O)c4cccs4)CC3)CC2)c1C (stereo not drawn),"inconclusive [activator, full curve, poor fit]"
2,Cc1ccc(-c2csc3ncnc(SCC(=O)Nc4nnc(C)s4)c23)cc1,"inconclusive [activator, single point]"
3,Cn1cccc1/C=N/n1c(-c2ccc(C(C)(C)C)cc2)n[nH]c1=S,"inconclusive [activator, single point]"
4,Cc1cccc(C(=O)NC(=S)N2CCN(C)CC2)c1,inactive
5,CCOCCCn1c(=NC(C)=O)c(C#N)cc2c(=O)n3ccccc3nc21,active: 2.59 µM
6,Cc1ccc(NC=C(S(=O)(=O)c2ccccc2)S(=O)(=O)c2ccccc2)c(C)c1,"inconclusive [activator, partial curve, poor fit]"
7,COc1cccc(NC(=O)CN(C)C(=O)c2ccc(S(=O)(=O)Nc3ccccc3C)cc2)c1,inactive
8,Cc1ccc(C2=NCCn3c2c2ccc([N+](=O)[O-])cc2[n+]3[O-])cc1,inactive
9,O=C(c1ccccc1)N1N=C(c2ccccc2)CC1c1ccccc1O (stereo not drawn),"inconclusive [activator, single point]"
10,O=C(Nc1ncc([N+](=O)[O-])s1)C1CCN(S(=O)(=O)c2cnc[nH]2)CC1,"inconclusive [activator, single point]"
11,CCC(C(=O)OC)n1cnc2c(cnn2-c2ccc(Cl)cc2)c1=O (stereo not drawn),"inconclusive [activator, partial curve, poor fit]"
12,Cn1c(-c2ccccc2)cc2c3no[n+]([O-])c3ccc21,"inconclusive [activator, full curve, poor fit]"
13,CCCCCCSc1ccc([C@@H]2[C@@H]3C(=O)N(C)C(=O)[C@@H]3[C@]3(C(=O)OC)CCCCN23)cc1,"inconclusive [activator, single point]"
14,CN(C)C(CNC(C(=O)Nc1ccc([N+](=O)[O-])cc1Br)c1ccccc1)c1ccccc1 (stereo not drawn),inactive
15,CCOc1ccc2[nH]c3c(NCCc4ccc(OC)c(OC)c4)ncnc3c2c1,"inconclusive [activator, single point]"
16,CCOC(=O)C(C)Sc1nc2ccccc2c(=O)n1CC1CCCCC1 (stereo not drawn),"inconclusive [activator, single point]"
17,CC(Oc1ccc(C(C)(C)C)cc1)C(=O)NCC(c1ccco1)N1CCCC1 (stereo not drawn),"inconclusive [activator, single point]"
18,N#CCCN(C(=O)CSc1nc2nc(-c3cccs3)cc(C(F)(F)F)c2c(=O)[nH]1)c1ccccc1,"inconclusive [activator, single point]"
19,Cc1nccn1CCCN1C(=O)CNC1=S,"inconclusive [activator, single point]"
20,COC(=O)CSc1ncnc2c1cnn2Cc1ccccc1,inactive
21,CC1CC2(CCCCC2)Nc2ccc3ccccc3c21 (stereo not drawn),"inconclusive [activator, single point]"
22,Cc1cc(N/N=C/c2ccccc2O)nc(-c2ccccc2O)n1,inactive

row,SMILES,Potency
1,CCCCCCc1cc2cc(C(=O)Nc3ccc(OC)cc3)c(=O)oc2cc1O,active: 0.731 µM
2,OC(CCc1ccncc1)COc1ccccc1 (stereo not drawn),inactive
3,O=C1Cc2ccccc2Sc2cc(OCCCN3CCCCC3)ccc21,"inconclusive [activator, partial curve, poor fit]"
4,CCOc1ccc(C(=S)N2CCN(C)CC2)cc1,inactive
5,CCOC(=O)CSC1=C(C#N)C(c2ccc(C)cc2)C2=C(CCCC2=O)N1 (stereo not drawn),"inconclusive [activator, single point]"
6,Nc1nc(SCc2nc(-c3ccccc3)no2)[nH]c(=O)c1-c1ccccc1,inactive
7,COc1ccc(-n2nc(C#N)c(Cl)cc2=O)cc1,active: 0.731 µM
8,S=c1[nH]nc(-c2n[nH]c3c2CCC3)n1/N=C/C=C/c1ccccc1,"inconclusive [activator, single point]"
9,Cc1noc(C)c1COc1cccc(C(=O)OCC(=O)N2CC(=O)Nc3ccccc32)c1,active: 1.84 µM
10,COC(=O)C1OC(OC2CC[C@]3(C)C(CC[C@@]4(C)[C@@H]3CC=C3[C@@H]5CC(C)(C)CC[C@]5(C(=O)OC5OC(CO)C(O)C(O)C5O)CC[C@]34C)C2(C)C)C(O)C(O)C1O[C@H]1OCC(O)C(O)C1O (stereo partly drawn),"inconclusive [activator, partial curve, poor fit]"
11,CN(CC(=O)Nc1ccc(Cl)cc1F)C1CCS(=O)(=O)C1 (stereo not drawn),"inconclusive [activator, single point]"
12,CCN1CCN(c2ccc(NC(=O)Cc3ccccc3)cc2)CC1,inactive
13,Cc1c(N=NC2=C(O)CC(C)(C)CC2=O)cc2c(c1[N+](=O)[O-])C(C)(C)CC2(C)C,"inconclusive [activator, single point]"
14,O=C(O)c1ccccc1C(=O)N1CCc2c([nH]c3ccccc23)C1C(F)(F)F (stereo not drawn),inactive
15,COc1ccccc1NC(=S)N1CCC(c2nc3cc(C)c(C)cc3[nH]2)CC1,inactive
16,CCn1c(=S)sc2c(=O)n(CC(=O)Nc3ccccc3OC)c(C)nc21,"inconclusive [activator, single point]"
17,CCOC(=O)c1c(N)sc2c1CCC(C)C2 (stereo not drawn),"inconclusive [activator, partial curve, poor fit]"
18,COc1ccc(C(=O)COC(=O)CCN=C2NS(=O)(=O)c3ccccc32)c(OC)c1,inactive
19,Cc1ccc(NC(=O)Nc2nnc(Cc3ccc([N+](=O)[O-])cc3)s2)cc1C,"inconclusive [activator, single point]"
20,COc1ccc(Br)cc1C(=O)Nc1ccc(N2CCCC2)cc1,"inconclusive [activator, single point]"
21,CC(C)(Sc1ccc(CCN(CCCCC2CCCCC2)C(=O)NC2CCCCC2)cc1)C(=O)O,"inconclusive [activator, partial curve]"
